From PubChem BioAssay AID2060616 (Molecular Pharmacology Branch, DTP, NCI, 2025)
Not every entry of the source has a single result; some have several. The list is limited to them. The source may hold further records. Results that share an entry are repeated measurements in other runs, samples, wells, individuals or studies. Dates in brackets are months of testing.

System: 377384-186-R-J1-PDC complex spheroid viability
Assay: Anticancer human tumor 377384-186-R-J1-PDC patient-derived pancreatic carcinoma cell line growth inhibition [CLK]
Text: A high-throughput screen of multi-cell type tumor spheroids was designed to identify active combinations of […] and targeted small molecules. Complex spheroids include a stromal component modeled by human endothelial cells (HUVEC) and fibroblasts modeled by human mesenchymal stem cells (MSCs). The concentration ranges selected for each drug and investigational agent were based upon clinically achievable concentrations if the clinical Cmax of the agent was known.
Compounds. The drugs and investigational agents: cirtuvivint (SM08502; NSC835563), CC-671 (NSC850746), vemurafenib (NSC761431), tapotoclax (NSC804041), sotorasib (NSC818433), adagrasib (NSC831453), MRTX-1133 (NSC836407), BAY2416964 (NSC825713), copanlisib (NSC816437), inavolisib (NSC800729), abemaciclib (NSC768073), osimertinib (NSC779217), entinostat (NSC756642), eltanexor (KPT-8602, NSC794443), venetoclax (NSC766270), ceralasertib (NSC777638), bortezomib (NSC756655), olaparib (NSC753686), talazoparib (NSC767125), alisertib (NSC759677), peposertib (NSC802822), gemcitabine (NSC613327), 5-fluorouracil (NSC19893), SN-38 (NSC673596), oxaliplatin (NSC266046), paclitaxel (NSC125973), and doxorubicin (NSC123127), were obtained from the National Cancer Institute (NCI) Developmental Therapeutics Program Chemical Repository. […] If the clinical Cmax for an agent had not been determined, the highest concentration tested was 10 microM. […]
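Also: spheroids exposed to agents for 7 days before reading.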
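For viability, T/C in this document: luminescence signal used as a stand-in for viable cells.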

IC50 (compound alone) | Structure (SMILES) | viability, T/C (compound alone 10 µM, stronger effect = lower value)
 | CC1(C)CCC(CN2CCN(c3ccc(C(=O)NS(=O)(=O)c4ccc(NCC5CCOCC5)c([N+](=O)[O-])c4)c(Oc4cnc5[nH]ccc5c4)c3)CC2)=C(c2ccc(Cl)cc2)C1 | 7.01% [2023-07] and 109% [2023-08]
> 10 µM [2023-07] and 718 nM [2023-08] | CC(Nc1ccc2c(c1)OCCn1cc(N3C(=O)OCC3C(F)F)nc1-2)C(N)=O (configuration not stated) | 
